According to PubChem BioAssay AID686979 (National Center for Advancing Translational Sciences (NCATS), 2013):
Values joined by “and” are separate entries in the source; they are usually repeats but may differ in a detail not shown here. Equal values may be shown once. The campaign covered roughly 420,000 compounds. About 50,000 (12%) were called active. Inconclusive means that the source gave no clear call. Such entries were picked first, then a sample of the others. The call rests on the fitted dose curve; in most records, active means well fitted inhibition curve with a large enough effect; inconclusive means small, poorly fitted or top-dose-only effect; inactive means flat fitted curve, though single readings scatter. Potencies beside an inconclusive call are fits to weak or partial responses and may not hold up.

Assay: qHTS for Inhibitors of human tyrosyl-DNA phosphodiesterase 1 (TDP1): qHTS in cells in presence of CPT; further: nearly all actives have a fitted effect of over 55% in size
Details: chicken DT40 Tdp1-/-;hTDP1 cells + 20 nM CPT, ATP luminescence, 48 h; activity change, negative = growth inhibition: at 46.2 µM (top of the series) unless noted
Method in brief: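 Cell growth measured by CellTiter-Glo luminescence after a minimum 48 h, 37 C compound exposure with 20 nM CPT in Tdp1-knockout DT40 cells stably expressing hTDP1, seeded 400/well; qHTS titration format.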
On the % scale 0 is the no-effect control and ±100 the full control effect; potency means the concentration at half of the fitted maximal effect; tags describe the fitted curve by direction and shape.

Row | SMILES | Potency | activity change, negative = growth inhibition
1 | CCCCCCCC1c2c(c(C)c(C)oc2=O)Oc2c(C)c(C)oc(=O)c21 | inconclusive: 29.1 µM [inhibitor, partial curve, poor fit] | 
2 | COc1ccc(-n2ncc3c2CC(C)(C)CC3NC(=O)CCc2c(C)noc2C)cc1 (stereo not given) | inactive | 
3 | CSc1nnc(NC(=O)c2nc(S(=O)(=O)Cc3ccccc3F)ncc2Cl)s1 | active: 2.91 µM | 
4 | CC(C)(C)OC(=O)N1O[C@H]2C[C@@H]1[C@@H]1[C@@H]2N=NN1C12CC3CC(CC(C3)C1)C2 | inconclusive: 11.6 µM [inhibitor, partial curve] | 
5 | Nn1c(SCC(=O)N2CCCc3ccccc32)nnc1-c1ccc(Cl)cc1 | inconclusive: 10.3 µM [inhibitor, partial curve] | 
6 | CC(C)c1ccc(NC(=O)Cn2c(=O)oc3cccnc32)cc1 | inactive | 
7 | O=C(O)CCCN1C(=O)/C(=C\C(Cl)=C\c2ccccc2)SC1=S | active: 18.4 µM | 
8 | COc1ccc(N2CCN(C(c3ccccc3)c3nnnn3Cc3ccccc3)CC2)cc1 (stereo not given) | inconclusive: 35.5 µM [inhibitor, single point] | 
9 | CCOC(=O)Cn1nnnc1CN(CCc1ccccc1)Cc1cc2cc(CC)ccc2[nH]c1=O | active: 18.4 µM | 
10 | COc1ccc(C(=O)Oc2c(CN3CCOCC3)cc(Cl)c3cccnc23)cc1 | active: 8.2 µM | 
11 | CN(C)c1ccc(C(C(=O)NC2CCCC2)N(C(=O)c2ccco2)C2CC2)cc1 (stereo not given) | inactive | 
12 | CCC(C)N=Cc1c(Nc2ccccc2)nc2c(C)cccn2c1=O (stereo not given) | inconclusive: 16.4 µM [inhibitor, single point] | 
13 | O=C(N/N=C/c1c(Cl)cccc1Cl)C(=O)NC1CC1 | inactive | 
14 | CC(C)CC(C(=O)N1CCc2ccccc2C1)N1C(=O)c2ccccc2C1=O (stereo not given) | inconclusive: 23.1 µM [inhibitor, single point] | 
15 | CC1(C(=O)NCc2ccc(C(F)(F)F)cc2)CCN1Cc1ccc(-c2ccccc2)o1 (stereo not given) | inconclusive: 25.9 µM [inhibitor, single point] | 
16 | O=C(c1nc2ccccn2c1CN1CCCC(OCc2ccccc2)C1)N1CCCC1 (stereo not given) | inactive | 
17 | N#C/C(C(=O)Nc1ccc(Cl)cc1)=C(/S)Nc1ccccc1 | active: 14.6 µM | 
18 | COc1ccccc1C(=O)Nc1nnc(SCc2cc(=O)c3cc(Cl)ccc3[nH]2)s1 | inconclusive: 11.6 µM [inhibitor, partial curve, poor fit] | 
19 | COc1ccc(NC(=O)c2c(-c3ccc(C)cc3)nnc3ccccc23)cc1Cl | inactive | 
20 | CCOC(=O)N1CCN(c2cc(N3CCN(CC)CC3)c(F)cc2[N+](=O)[O-])CC1C (stereo not given) | active: 20.6 µM | 
21 | COc1cccc(CNC(=O)C(C(=O)NCc2cccc(OC)c2)c2ncc(C(F)(F)F)cc2Cl)c1 | inconclusive: 23.1 µM [inhibitor, single point] | 
22 | CC(=O)c1ccc(N2CCN(C(=O)CCCc3nc4ccccc4s3)CC2)cc1 | active: 11.6 µM | 
23 | CCC1Nc2ncnc(N3CCOCC3)c2N(Cc2ccc(Br)cc2)C1=O (stereo not given) | inconclusive: 13 µM [inhibitor, partial curve] | 
24 | CCCCNC(=S)NNC(=O)c1ccncc1 | inactive | 

Row | SMILES | Potency | activity change, negative = growth inhibition
25 | Cc1ccc(-c2ccc(C(=O)N3CCc4nnc(CNC(=O)c5ccccc5)n4CC3)cc2)cc1 | inconclusive: 18.4 µM [inhibitor, single point] | 
26 | CC1(C)N=C(SCC(=O)Nc2ccccc2)C(c2ccc(Cl)cc2)=N1 | active: 23.1 µM | 
27 | O=C(CNC(=O)c1ccccc1F)OCc1cc(=O)n2ccsc2n1 | inactive | 
28 | Cc1sc2ncnc(Nc3ccccc3)c2c1C | inconclusive: 23.1 µM [inhibitor, single point] | 
29 | Cc1ccc(N2NC(C)(c3cccs3)NC2=S)cc1 (stereo not given) | inconclusive: 10.3 µM [inhibitor, partial curve] | 
30 | CN(C)c1ncnc2c1ncn2[C@H]1CN(Cc2ccc(-c3ccccc3)cc2)C[C@@H](CO)O1 | inconclusive: 29.1 µM [inhibitor, single point] | 
31 | CSc1ncnc2c1ncn2CCCNCc1ccccn1 | inactive | 
32 | Cc1c(N=C/C=C2\N(C)c3ccccc3C2(C)C)c(=O)n(-c2ccccc2)n1C | inconclusive: 29.1 µM [inhibitor, single point] | 
33 | COc1cccc(S(=O)(=O)Nc2ccc(C(=O)Nc3ccncc3)cc2)c1 | active: 13 µM | 
34 | CN(C)CCCSc1nc2ccccc2s1 | inconclusive: 25.9 µM [inhibitor, single point] | 
35 | CCN(CC)CCCCCCCCOC(=O)c1cc(OC)c(OC)c(OC)c1 | inconclusive: 34.4 µM [inhibitor, single point] and inconclusive: 14.6 µM [inhibitor, single point] | 
36 | Cc1ccc(C)c2[nH]c(=O)c(CN(Cc3nnnn3C3CCCCC3)CC3CCCO3)cc12 (stereo not given) | active: 14.6 µM | 
37 | CN1/C(=C/C=C/c2n(C)c3cc([N+](=O)[O-])c([N+](=O)[O-])cc3[n+]2C)C(C)(C)c2ccccc21 | inconclusive: 5.8 µM [inhibitor, full curve, poor fit] | 
38 | CCOC(=O)CNC(=O)CSc1nnc(C)c(=O)[nH]1 | inactive | 
39 | CC(=O)N1CCc2c(sc(NC(=O)c3ccc(S(=O)(=O)N(C)CC4CCCO4)cc3)c2C(N)=O)C1 (stereo not given) |  | inconclusive: -31% [inhibitor]
40 | Cn1c(CC(=O)Nc2ccccc2Cl)nnc1SCC(=O)NC1CCCCC1 |  | inconclusive: -5.93% [inhibitor]
41 | CCCCCCC(C)n1[nH]c(=O)c2c(C)cc(C)nc21 (stereo not given) | inconclusive: 18.4 µM [inhibitor, single point] | 
42 | COc1ccc2c(c1)CCC1=C2NC(=S)NC1c1ccc(N(C)C)cc1 (stereo not given) | inconclusive: 29.1 µM [inhibitor, single point] | 
43 | COc1ccc(/C=C/C(=O)c2ccc(O)cc2O)cc1OC | inconclusive: 29.1 µM [inhibitor, single point] | 
44 | Cc1ccc(-c2nc(N/N=C/c3ccncc3)c3ccccc3n2)cc1 | active: 20.6 µM | 
45 | Cc1ccc2c(c1)C(c1ccccc1)N(C(=O)c1ccc3c(c1)OCO3)CC(=O)N2 (stereo not given) | inconclusive: 29.1 µM [inhibitor, single point] | 
46 | O=C(c1ccccc1)N1CCN(C(=O)c2nn3c(C(F)(F)F)cc(-c4ccco4)nc3c2Br)CC1 | inconclusive: 20.6 µM [inhibitor, partial curve] | 
47 | Oc1[nH]c2ccccc2c1N=NC(=S)NCCc1ccccc1 | active: 16.4 µM | 
48 | Cc1ccc2nc(-c3ccc(NS(=O)(=O)c4c(C)n(C)c(=O)n(C)c4=O)cc3)sc2c1 | inconclusive: 18.4 µM [inhibitor, single point] | 

Row | SMILES | Potency | activity change, negative = growth inhibition
49 | CC1=C(C(=O)N(C)C)CC(CC(=O)NC(c2ccccc2)c2ccccc2)C(=O)N1Cc1ccc(C(C)(C)C)cc1 (stereo not given) | inconclusive: 29.1 µM [inhibitor, single point] | 
50 | C=C(C)COc1ccc(-c2[nH]ncc2-c2ccc(OC)cc2)c(O)c1 | inconclusive: 20.6 µM [inhibitor, single point] | 
51 | Cc1ccc(CN2CCN(C3CCN(C(=O)c4ccccc4)CC3)C(=O)C2=O)cc1 | inactive | 
52 | Cc1cc(=O)n2cccc(O)c2n1 | active: 3.66 µM | 
53 | COc1ccc(CNC(=O)C2(C)Cc3c(-c4ccccc4)ccnc3O2)cc1OC (stereo not given) | inconclusive: 29.1 µM [inhibitor, single point] | 
54 | N#Cc1ccsc1NC(=O)CN1CCN(c2ccc(O)cc2)CC1 | inconclusive: 16.4 µM [inhibitor, single point] | 
55 | CCN(Cc1ccncc1)C(=O)c1cc(COc2c(F)cccc2F)on1 | inconclusive: 18.4 µM [inhibitor, single point] | 
56 | CC(C(=O)OCC(=O)N1CCCCC1)N1C(=O)c2ccccc2C1=O (stereo not given) | inconclusive: 5.8 µM [inhibitor, single point] | 
57 | Cc1cc(C(=O)NCC(c2ccco2)N2CCCC2)c2ccccc2n1 (stereo not given) | inactive | 
58 | O=C(N/N=C/c1ccco1)c1cc2ccccc2o1 | inactive | 
59 | O=C(NCC(c1ccco1)N1CCCCC1)c1ccc(COc2ccc(Cl)cc2)cc1 (stereo not given) | active: 20.6 µM | 
60 | C=Cc1ccc(Cn2c(C)c(C(=O)NCc3cccc([N+](=O)[O-])c3)sc2=O)cc1 | inconclusive: 29.1 µM [inhibitor, single point] | 
61 | CNC(=O)/C(C#N)=C/c1cccc(Oc2ccccc2)c1 | active: 25.9 µM | 
62 | Cc1cc2cc(C(c3nnnn3Cc3ccco3)N3CCc4ccccc43)c(=O)[nH]c2cc1C (stereo not given) | inconclusive: 29.1 µM [inhibitor, single point] | 
63 | Cc1cc(=O)[nH]c(Nc2cccc(C(F)(F)F)c2)n1 | inconclusive: 18.4 µM [inhibitor, single point] | 
64 | O=C(c1ccc(Cl)cc1)c1c[nH]cc1-c1ccccc1 |  | inconclusive: -31.5% [inhibitor]
65 | C=C(C)COc1ccc(-c2ncncc2-c2ccccc2OC)c(O)c1 | inconclusive: 25.9 µM [inhibitor, single point] | 
66 | Cc1ccc(C)c(OCC(=O)NCC2COc3ccccc3O2)c1 (stereo not given) | inconclusive: 29.1 µM [inhibitor, single point] | 
67 | COC(=O)c1ccc(C(=O)N2CCCC(Nc3ccc(C(C)C)cc3)C2)cc1 (stereo not given) | inactive | 
68 | O=C(NCCCN1CCOCC1)C(=O)N/N=C/c1c2ccccc2cc2ccccc12 | inconclusive: 29.1 µM [inhibitor, single point] | 
69 | CC(=O)c1ccccc1C(=O)N1CCC(CCC(=O)NCc2ccc(F)cc2)CC1 | inactive | 
70 | CCN(CC)CCCNC(=O)c1cn(CC)c2ccc(S(=O)(=O)N3CCc4ccccc4C3)cc2c1=O | inconclusive: 29.1 µM [inhibitor, single point] and inconclusive: 25.9 µM [inhibitor, single point] | 
